Hit rate of the full screen: of about 45,000 compounds, about 65 (0.1%) were called active. Calls follow the shape of the dose curve; as a rule, active = well fitted activation curve with a large enough effect; inconclusive = small, poorly fitted or top-dose-only effect; inactive = no such curve, though single readings can be large or run the other way. The list shows a part of the results.
Biological target: Galactocerebrosidase (Homo sapiens) (UniProt P54803)
Experiment: A Novel Cell-Based Assay to Identify Small Molecules for B -Galactocerebrosidase; also: 0% is about no effect; nearly all actives have a fitted effect of over 65% in size
Conditions: 145M-Twi-hGALC-G270D cells, HMU-beta-Gal fluorescence, 48 h; series mostly up to 57.5 µM; activation: at the top concentration
Method in brief: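 qHTS, 1536-well; 145M-Twi-hGALC-G270D cells (WT line also made) in DMEM/F12 + 10% FBS; compound incubation on live cells; HMU-β-gal 0.1 mM final, pH 5.2, NaTC; carbonate stop; fluorescence increase = enhanced residual activity.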

UniProt P54803, sequence (P54803 whole entry, looked up): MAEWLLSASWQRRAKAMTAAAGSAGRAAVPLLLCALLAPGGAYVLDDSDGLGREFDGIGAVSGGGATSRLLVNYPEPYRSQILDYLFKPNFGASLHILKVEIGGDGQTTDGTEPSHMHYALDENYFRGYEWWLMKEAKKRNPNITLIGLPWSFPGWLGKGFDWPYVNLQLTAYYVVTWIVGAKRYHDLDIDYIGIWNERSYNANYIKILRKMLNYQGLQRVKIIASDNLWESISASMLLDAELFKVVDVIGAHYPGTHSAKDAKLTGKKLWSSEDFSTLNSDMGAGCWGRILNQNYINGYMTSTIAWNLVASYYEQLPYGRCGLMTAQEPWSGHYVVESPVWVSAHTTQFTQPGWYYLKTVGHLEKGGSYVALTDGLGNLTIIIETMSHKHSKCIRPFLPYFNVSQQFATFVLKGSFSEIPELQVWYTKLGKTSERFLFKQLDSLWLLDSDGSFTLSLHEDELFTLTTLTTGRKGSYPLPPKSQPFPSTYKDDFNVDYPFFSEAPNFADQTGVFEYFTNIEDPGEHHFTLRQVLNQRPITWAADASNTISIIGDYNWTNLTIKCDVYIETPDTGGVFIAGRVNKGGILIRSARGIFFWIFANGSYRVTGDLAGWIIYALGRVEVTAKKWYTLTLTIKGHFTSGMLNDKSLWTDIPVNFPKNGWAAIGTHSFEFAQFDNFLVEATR

activation, inactive:
COCCCNC(=O)C1CCN(c2nnc(-n3cccc3CNc3ccc(C)cc3)s2)CC1 -8.54%
Cc1cc(OCCn2c(C3CC(=O)N(Cc4ccc(F)cc4)C3)nc3ccccc32)ccc1Cl (centres undefined) -29.4%
COc1cc2[nH]c(=O)n(CCCC(=O)NCc3ccccc3Cl)c(=O)c2cc1OC -14.3%
CCCn1cc(S(=O)(=O)c2cccc(Cl)c2)c(=O)c2cc(F)c(N3CCN(CC)CC3)cc21 -11.1%
COc1ccccc1CNC(=O)Cn1c(=O)oc2ccccc21 -11.2%
COc1cc(C(=S)N2CCOCC2)ccc1O -15.4%
COc1ccccc1CNc1nc(-c2ccco2)nn1C(=O)c1ccccc1[N+](=O)[O-] -13%
CCCCn1c(CCNC(=O)c2ccc(F)cc2)nc2ccccc21 -5.05%
COc1ccc(-c2cc(C(F)(F)F)nc(S(=O)(=O)CCCC(=O)Nc3ccccc3C(F)(F)F)n2)cc1OC -19.8%
COc1ccc(S(=O)(=O)N2Cc3ccccc3CC2C(=O)Nc2cccc(C)c2)cc1OC (centres undefined) -17.7%
COc1cccc(CNC(=O)Cn2cc3c(n2)-c2c(oc(C(=O)N4CCOCC4)c2C)CC3)c1 -5.56%
O=C(CN1C(=O)C2CCCCN2c2ccc(C(=O)N3CCCC3)cc21)NCc1ccccc1 (centres undefined) -7.88%
COC(=O)c1ccccc1NC(=O)CSc1nc2sc3c(c2c(=O)[nH]1)CCCC3 -14.1%
COCCCNC(=O)Cn1c(=O)n(-c2cccc(C)c2)c(=O)c2c3c(sc21)CN(C(C)=O)CC3 19.1%
CCN(C(=O)CSc1nnc(-c2ccc(Cl)cc2)o1)c1ccccc1 -11.6%
CCc1cccc(C)c1NC(=O)C1CCCN(S(=O)(=O)c2cccc3nsnc23)C1 (centres undefined) -7.88%
CN(C)c1ccc(CNc2nc(-c3ccco3)nn2S(=O)(=O)c2ccc(Cl)cc2)cc1 -17.7%
COc1ccc(-c2nc3ccccc3o2)cc1NC(=O)c1ccc(N2CCC(C)CC2)c([N+](=O)[O-])c1 -17.4%
COc1ccc(CNC(=O)c2cc3c(=O)n(Cc4cccs4)ccc3nc2C)cc1 -12.2%
Cc1ccc2nc(N3CCN(C(=O)C4COc5ccccc5O4)CC3)sc2c1 (centres undefined) -17.7%
COc1ccc(/C=N/NC(=O)c2ccncc2)cc1OC -17.4%
Cc1ccnc(NS(=O)(=O)c2ccc(NC(=O)c3cc(=O)c4ccc(C)c(C)c4o3)cc2)n1 -16.2%
COC(=O)c1ccc(CSc2nc3c([nH]c4ccccc43)c(=O)n2-c2cccc(OC)c2)o1 -15.3%
Cc1ccc(C(=O)c2cn(Cc3ccc(F)cc3)c3nc(C)ccc3c2=O)cc1 3.08%
CCOC(=O)c1cc(-c2ccc(C)cc2)n(CC(=O)Nc2cccc(C(C)=O)c2)c1C -11.8%
CN(C)CCNC(=O)Cc1ccc(NC(=O)N2CCCCc3ccccc32)cc1 -8.84%
Cc1nn(Cc2ccccc2)c(C)c1NC(=O)c1cc(C(C)C)on1 10.6%
CC1(C)CC(=O)c2cc(C(=O)Nc3ccc(Br)cc3)c(=O)n(-c3ccc(Cl)cc3)c2C1 1.73%
COCCCn1c(=N)c(S(=O)(=O)c2ccccc2)cc2c(=O)n3cccc(C)c3nc21 -11.9%
COc1ccc(Nc2oc(/C=C/c3ccc(F)cc3)nc2C#N)cc1 -2.54%
Cc1ccc(C2c3cccn3CCN2S(=O)(=O)c2ccc([N+](=O)[O-])cc2)cc1 (centres undefined) -3.09%
COc1ccccc1N1CCN(C(=O)CCSCc2ccccc2F)CC1 -8.46%
Cc1ccccc1OCc1nc2c3cnn(-c4ccccc4Br)c3ncn2n1 -6.16%
Cc1oc(-c2ccccc2F)nc1Cn1c(SCc2ccccc2F)nc2ccncc21 -10.4%
CCn1cc2nc(SCc3cc(C)ccc3C)n(Cc3ccc(C)cc3)c(=O)c2n1 -23.9%
CCN1C(=O)c2ccccc2Sc2ccc(NC(=O)Nc3ccc(Br)c(C)c3)cc21 -9.58%
COc1ccc(-c2cc(NCc3ccc(C)cc3)n3cnnc3n2)cc1 -37.8%
COc1cccc(NC(=O)C(=O)NCCc2sc(-c3cccc(C)c3)nc2C)c1 -36.9%
COc1ccc(Nc2nc(N)nc(CSc3nc4ccccc4s3)n2)cc1 -18.5%
O=S1(=O)c2ccccc2N(Cc2ccccc2Cl)c2ccccc21 -15.5%
CCC1CN(C(=O)NCc2cccc(OC)c2)c2ccccc2O1 (centres undefined) -6.5%
COc1ccc(CCNC(=O)c2cc3c(=O)n(C)c4cc(Cl)ccc4c3s2)cc1OC -10.7%
COc1ccc(-c2[nH]c(-c3ccccc3)nc2SCC(=O)NC2CCCC2)cc1 -22.3%
CC(C(=O)O)c1cccc(Oc2ccccc2)c1 (centres undefined) -28.7%
Cc1ccc(-c2ccc(=O)n(CC(=O)NC(C)c3ccccc3)n2)cc1 (centres undefined) -14.1%
O=C(CN1C(=O)COc2ccc(S(=O)(=O)Nc3ccccc3)cc21)NCc1ccccc1Cl -14.4%
CCN(CC)S(=O)(=O)c1ccc(C(=O)NC2CC(=O)N(c3ccc4c(c3)OCCO4)C2)cc1 (centres undefined) 1.32%
CCOC(=O)c1c(S(=O)(=O)N2CCC(C(=O)Nc3cccc(C#N)c3)CC2)c(C)n(C)c1C -9.79%
Cc1c(C(=O)OC2CCCCCC2)[nH]c2c1C(=O)CC(c1ccccc1Cl)C2 (centres undefined) -19.9%
Cc1ccccc1NC(=O)Cn1c(=O)n(CCCCC(=O)NCc2ccccc2Cl)c(=O)c2ccccc21 -24.1%
COc1ccc(CCNc2nc(SCc3ccccc3Cl)nc3ccccc23)cc1OC 0.867%
CCOC(=O)c1ccc(N2C(=O)c3[nH]nc(-c4ccccc4)c3C2c2cccs2)cc1 (centres undefined) -24.4%
COc1ccc(NC(=O)Cn2c(=O)n(CCc3ccccc3)c(=O)c3sc4ccccc4c32)cc1 1.2%
Cc1cc(C)nc(-n2nc(C)c3c2NC(=O)CC3c2ccccc2OC(C)C)n1 (centres undefined) -17.7%
O=C(CSc1nc2c(c(=O)[nH]1)CN(Cc1ccc(F)cc1)CC2)Nc1cccc(C(F)(F)F)c1 -5.62%
Cc1ccc(C)c(NC(=O)C2CCCN(S(=O)(=O)c3cccc4nsnc34)C2)c1 (centres undefined) -7.29%
CCCCC(=O)NC1(C(F)(F)F)C(=O)Nc2c1c(=O)[nH]c(=O)n2-c1ccc(F)cc1 (centres undefined) -14.1%
CCC1CCCCN1C(=O)Cn1c(=O)n(-c2ccccc2C(F)(F)F)c(=O)c2c(C)c(C(=O)N(C)C)sc21 (centres undefined) -10.3%
COc1cc(Cl)c(NS(=O)(=O)c2ccc3[nH]c(=O)ccc3c2)c(OC)c1 -15.5%
COc1ccccc1N1CCN(C(c2ccccc2)c2nnc(-c3ccccc3Cl)o2)CC1 (centres undefined) -17.6%
Cc1ccc(NC(=O)Cn2c(=O)n(Cc3nc(-c4ccccc4)no3)c(=O)c3cc4c(cc32)OCO4)cc1C -9%
CCOc1ccc(OCC)c(NC(=O)CN(c2ccc(C)cc2)S(=O)(=O)c2c(C)n[nH]c2C)c1 -14.2%
CCOc1ccc(NC(=O)C(CC)n2nc(-c3ccc(C)c(C)c3)ccc2=O)cc1 (centres undefined) -7.61%
COc1ccc(C2CC(=O)c3c([nH]c(C(=O)OC4CCCC4)c3C)C2)cc1OC (centres undefined) -16%
COc1ccc(-c2csc3ncnc(Nc4ccc(OC)c(OC)c4)c23)cc1 -14.2%
CCOc1ccc(CCNC(=O)c2ccc(Cn3c(=O)c4cccn4c4cccnc43)cc2)cc1 11.6%
COc1cccc(C(=O)c2sc(Nc3ccc(C)cc3C)c(S(=O)(=O)c3ccccc3)c2N)c1 -14.2%
C[C@@H]1CN(CCCn2c3ccccc3c3ccccc32)C[C@H](C)N1 -13.1%
CC(C)=CCOc1ccc(/C=C/C(=O)c2ccc(OCC=C(C)C)cc2OCC(=O)O)cc1 -5.43%
CCCNC(=O)c1cc2n(n1)CCCN(Cc1ccc(F)cc1)C2=O -4.14%
O=C(c1ccc2c(c1)N(Cc1ccccc1F)C(=O)c1ccccc1S2(=O)=O)N1CCCCCC1 -5.9%
O=C(C1COc2ccccc2O1)N(Cc1cccnc1)c1nc2ccc(F)cc2s1 (centres undefined) -8.85%
CCOc1ccc(CCNC(=O)c2ccc3[nH]c(C)c(C)c3c2)cc1 -6.35%
Cc1ccc2scc(N3CCN(c4ccccc4)CC3)c(=O)c2c1 -13.4%
O=C(CSCc1nc2cccnc2n1C1CCCCC1)NCc1cccc(Br)c1 -2.02%
O=C(OCc1ccccc1)c1ccc(-c2nnn(Cc3ccccc3F)n2)cc1 0.706%
CCOC(=O)c1sc(N2C(=O)c3oc4ccc(F)cc4c(=O)c3C2c2cccc(OC)c2)nc1C (centres undefined) -8.36%
CCN(C(=O)Cn1c(SCc2ccccc2F)nc2cccnc21)c1ccccc1 -0.545%
Cc1cc(N2CCCCC2)nc2ccc(NC(=O)CCC(=O)N3CCN(c4cccc(Cl)c4)CC3)cc12 -4.14%
COc1ccc(N2CC(NC(=O)/C=C\c3ccccc3)CC2=O)cc1 (centres undefined) 8.98%
C[C@@H](NCCCc1cccc(C(F)(F)F)c1)c1cccc2ccccc12 -10%
O=C(Cn1c(SCCOc2ccccc2)nc2ccccc21)N1CCOCC1 -24%
COc1cccc(CNC(=O)C(=O)NCC(c2ccco2)S(=O)(=O)c2cccs2)c1 (centres undefined) -4.89%
CC(=O)N1CCc2cc(CNC(=O)Cc3ccc(F)cc3)ccc21 -29.4%
CCOc1ccccc1CNC(=O)C1CCN(C(=O)N2CC(CC)Oc3ccc(C)cc32)CC1 (centres undefined) -14.4%
O=C(/C=C/c1ccccc1)N1CCN(Cc2cc(=O)n3nc(-c4ccccc4F)sc3n2)CC1 -24.1%
CC(C)(C)C(=O)Cn1c(=O)n(-c2ccc(Cl)cc2)c(=O)c2c3c(sc21)CCCC3 -11.4%
O=C(Nc1ccc2nc(SCC(=O)N3CCOCC3)sc2c1)c1cccc(Cl)c1 -11.6%
Cc1c(C(=O)OCCOc2ccccc2)[nH]c2c1C(=O)CC(c1ccccc1)C2 (centres undefined) -20.5%
Cc1cc(OCCn2cc(C(=O)c3cccs3)c3ccccc32)ccc1Cl -8.64%
Cc1c(Cl)cccc1NC(=O)COCc1cc(-c2ccc3c(c2)OCO3)on1 -4.38%
Cc1nc2c(-c3ccccc3)c(C)nn2c(C)c1CCC(=O)N1CCN(c2ccc(F)cc2)CC1 -17.4%
COc1cccc(CNC(=O)CCc2c(C)nc3c(c(C)nn3-c3ccc(C)c(C)c3)c2C)c1 -20.1%
Cc1cccc(N2CCN(CCCNc3ncnc4onc(-c5ccc(Cl)cc5)c34)CC2C)c1 (centres undefined) -18.2%

Reference: PubChem BioAssay AID1159614 (National Center for Advancing Translational Sciences (NCATS), 2016)
